Measurements reported in patent US20220251222A1 (Johns Hopkins, published 2022).

Key:
[1] = target: T1, human IL-6Rα extracellular domain (ECD), residues 89-303 of the mature protein, with C-terminal biotin … (human, UniProt P08887 108-322, biotinylated with BirA ligase on the biotin acceptor peptide); experiment: competition: antibody against 300 nM biotinylated IL-6Rα ECD binding to IL-6-displaying yeast, flow cytometry
T1 construct: range 89-303; The range 89-303 counts on the mature protein, not on the precursor; Any linkers between the ECD, BAP and His tag are not described; also called IL-6Rα ECD; recombinant IL-6Rα
T1 sequence: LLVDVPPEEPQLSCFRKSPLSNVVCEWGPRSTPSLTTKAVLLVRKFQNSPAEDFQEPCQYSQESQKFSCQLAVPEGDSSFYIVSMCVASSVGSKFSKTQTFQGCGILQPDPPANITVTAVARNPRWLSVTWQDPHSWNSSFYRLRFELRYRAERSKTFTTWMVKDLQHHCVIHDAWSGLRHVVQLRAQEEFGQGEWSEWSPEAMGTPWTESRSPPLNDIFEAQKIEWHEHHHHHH
Procedure: Approximately 1×10⁵ human IL-6-displaying yeast per well were plated in a 96-well plate and washed with PBSA. Yeast cells were incubated with saturating concentrations of biotinylated human IL-6Rα (300 nM) and serial dilutions of unlabeled competitor antibody (either the anti-IL-6R antibody tocilizumab, the anti-IL-8R antibody 10H2, BS1, or BS2) in PBSA for 2 hours at room temperature. Cells were then washed and stained with a 1:200 dilution of Alexa647-conjugated streptavidin (Thermo) in PBSA for 15 min at 4° C. Cells were washed again and assessed for human IL-6Rα binding on a CytoFLEX flow cytometer (Beckman Coulter). Background-subtracted fluorescent signal as a fraction of receptor subunit binding in the absence of competitor antibody was plotted. Curves were fitted to a first order logistic model and half maximal inhibitory concentrations (IC₅₀s) were computed using GraphPad Prism. Assays were performed in triplicate and repeated two times with consistent results.
Tocilizumab is known to compete with IL-6 for IL-6Rα engagement. Thus, bispecific binding agents containing the tocilizumab variable regions (BS1 and BS2) were also expected to obstruct cytokine binding. […] However, tocilizumab (IC₅₀=59 nM), BS1 (IC₅₀=190 nM), and BS2 (IC₅₀=78 nM) all inhibited IL-6/IL-6Rα binding.

[2] = target: T2, IL-6Rα expressed on lentivirally transduced HEK 293T cells (UniProt P08887 20-468, limits assumed); experiment: competition with 100 nM biotinylated IL-6 on IL-6Rα+/IL-8R- HEK 293T cells, flow cytometry
T2 construct: whole, on cells; also called IL-6Rα^+ cells; IL-6Rα^+/IL-8R^- HEK 293T cells
T2 sequence (looked up): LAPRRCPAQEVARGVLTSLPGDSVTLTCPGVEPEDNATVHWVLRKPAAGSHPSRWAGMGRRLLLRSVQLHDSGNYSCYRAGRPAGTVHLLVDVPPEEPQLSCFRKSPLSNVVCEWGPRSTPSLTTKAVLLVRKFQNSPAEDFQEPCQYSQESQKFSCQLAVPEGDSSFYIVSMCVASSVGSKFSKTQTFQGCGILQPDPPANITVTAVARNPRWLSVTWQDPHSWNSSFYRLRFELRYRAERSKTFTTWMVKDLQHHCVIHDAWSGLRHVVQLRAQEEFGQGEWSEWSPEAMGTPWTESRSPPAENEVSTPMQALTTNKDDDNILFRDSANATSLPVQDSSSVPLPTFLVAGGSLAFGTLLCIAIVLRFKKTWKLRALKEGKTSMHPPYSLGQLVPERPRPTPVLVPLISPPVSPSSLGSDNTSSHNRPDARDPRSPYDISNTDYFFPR
Procedure: (§1) IL-6Rα⁺/IL-8R⁻ and IL-6Rα⁻/IL-8R⁺ HEK 293T cells were cultured as previously described, and were trypsinized, resuspended in PBSA, and aliquoted into 96-well plates (2×10⁵ cells per well). IL-6Rα⁺/IL-8R⁻ 293T cells were incubated with titrations of various monoclonal or bispecific antibodies in the presence of saturating concentration of biotinylated IL-6 (100 nM) (Acro Biosystem, cat #: IL6-H8218-25UG) for 2 hr at 4° C. with rotation. Cells were then washed and incubated with 1:200 dilution of Alexa Fluor 647-conjugated streptavidin (Fisher Scientific, cat #: S21374) in PBSA for 15 min at 4° C. After a final wash, cells were resuspended in PBSA and analyzed on a CytoFLEX flow cytometer (Beckman Coulter). Curves were fitted to a first-order logistic model and IC₅₀ values were calculated using GraphPad Prism data analysis software. Mean fluorescence intensity (MFI) of unstimulated cells was subtracted. Similarly, IL-6Rα⁻/IL-8R⁺ 293T cells were incubated with titrations of various monoclonal or bispecific antibodies with saturating concentration of His-tagged IL-8 (400 nM) (Sino Biological, cat #: 10098-H08Y-100) for 2 hr at 4° C. with rotation. […] After a final wash, cells were resuspended in PBSA and analyzed on a CytoFLEX flow cytometer (Beckman Coulter). Curves were fitted to a first-order logistic model and IC₅₀ values were calculated using GraphPad Prism data analysis software. […]

[3] = target: T3, IL-6R on IL-6-responsive HepG2 cells (UniProt P08887 20-468, limits assumed); experiment: cell-based or functional assay
T3 sequence (looked up): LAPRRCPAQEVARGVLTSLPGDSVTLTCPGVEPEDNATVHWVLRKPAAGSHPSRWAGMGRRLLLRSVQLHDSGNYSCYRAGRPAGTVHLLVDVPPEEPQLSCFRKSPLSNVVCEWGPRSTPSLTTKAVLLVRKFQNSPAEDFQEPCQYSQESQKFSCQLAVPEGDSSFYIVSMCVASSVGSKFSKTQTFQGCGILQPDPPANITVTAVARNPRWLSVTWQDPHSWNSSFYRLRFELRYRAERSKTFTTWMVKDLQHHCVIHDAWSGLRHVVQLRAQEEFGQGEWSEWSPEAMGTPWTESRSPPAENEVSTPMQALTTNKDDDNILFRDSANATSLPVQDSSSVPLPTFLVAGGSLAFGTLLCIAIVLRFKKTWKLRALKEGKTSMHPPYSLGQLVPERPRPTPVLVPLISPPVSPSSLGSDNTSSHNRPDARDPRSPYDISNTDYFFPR

[4] = target: T4, IL-8RB expressed on lentivirally transduced HEK 293T cells (UniProt P25025 1-360, limits assumed); experiment: competition with 400 nM His-tagged IL-8 on IL-6Rα-/IL-8R+ HEK 293T cells, flow cytometry
T4 construct: whole, on cells; also called IL-8R^+ cells; IL-6Rα^-/IL-8R^+ HEK 293T cells
T4 sequence (looked up): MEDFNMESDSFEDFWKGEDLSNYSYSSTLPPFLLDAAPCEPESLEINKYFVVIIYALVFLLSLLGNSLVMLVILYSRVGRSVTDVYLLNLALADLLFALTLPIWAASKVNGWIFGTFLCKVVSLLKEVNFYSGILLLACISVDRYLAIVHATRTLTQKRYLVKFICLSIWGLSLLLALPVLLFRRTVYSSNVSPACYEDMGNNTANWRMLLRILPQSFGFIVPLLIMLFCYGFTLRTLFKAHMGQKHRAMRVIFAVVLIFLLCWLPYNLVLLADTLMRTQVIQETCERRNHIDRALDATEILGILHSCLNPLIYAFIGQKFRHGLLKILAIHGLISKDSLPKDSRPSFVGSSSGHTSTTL
Procedure: as §1

IC50 [1]: 190 nM | IC50 [2]: 120 nM | inhibition of IL-6-induced STAT3 phosphorylation in HepG2 cells (IC50) [3]: 110 nM | IC50 [4]: 99 nM
B1: BS1 bispecific binding agent (knobs-in-holes, single-chain Fab; tocilizumab arm and 10H2 arm) (bispecific antibody, human IgG1, kappa)
chain 1: AGSDIQMTQSPSSLSASVGDRVTITCRASQDISSYLNWYQQKPGKAPKLLIYYTSRLHSGVPSRFSGSGSGTDFTFTISSLQPEDIATYYCQQGNTLPYTFGQGTKVEIKRTVAAPSVFIFPPSDEQLKSGTASVVCLLNNFYPREAKVQWKVDNALQSGNSQESVTEQDSKDSTYSLSSTLTLSKADYEKHKVYACEVTHQGLSSPVTKSFNRGECGGSGGSSGSGSGSTGTSSSGTGTSAGTTGTSASTSGSGSGEVQLQESGPGLVRPSQTLSLTCTVSGYSITSDHAWSWVRQPPGRGLEWIGYISYSGITTYNPSLKSRVTMLRDTSKNQFSLRLSSVTAADTAVYYCARSLARTTAMDYWGQGSLVTVSSASTKGPSVFPLAPSSKSTSGGTAALGCLVKDYFPEPVTVSWNSGALTSGVHTFPAVLQSSGLYSLSSVVTVPSSSLGTQTYICNVNHKPSNTKVDKKVEPKSCDKTHTCPPCPAPELLGGPSVFLFPPKPKDTLMISRTPEVTCVVVDVSHEDPEVKFNWYVDGVEVHNAKTKPREEQYNSTYRVVSVLTVLHQDWLNGKEYKCKVSNKALPAPIEKTISKAKGQPREPQVYTLPPSREEMTKNQVSLSCAVKGFYPSDIAVEWESNGQPENNYKTTPPVLDSDGSFFLVSKLTVDKSRWQQGNVFSCSVMHEGLHNHYTQKSLSLSPGK
chain 2: AGSQAVVTQESALTTSPGETVTLTCRSSTGAVTTSNYANWVQEKPDHLFTGLIGGTNNRPPGVPARFSGSLIGDKAALTITGAQIEDEAIYFCALWYSNHLVFGGGTKLTVLRTVAAPSVFIFPPSDEQLKSGTASVVCLLNNFYPREAKVQWKVDNALQSGNSQESVTEQDSKDSTYSLSSTLTLSKADYEKHKVYACEVTHQGLSSPVTKSFNRGECGGSGGSSGSGSGSTGTSSSGTGTSAGTTGTSASTSGSGSGEVQLVETGGRLVQPKGSLKLSCAVSGITFKTNAMNWVRQAPGKGLEWVARIRTKSYNYATYYADSVKDRFTISRDDSQSILYLQMNNLKTEDTAMYHCVREGRWGQGTLVTVSAASTKGPSVFPLAPSSKSTSGGTAALGCLVKDYFPEPVTVSWNSGALTSGVHTFPAVLQSSGLYSLSSVVTVPSSSLGTQTYICNVNHKPSNTKVDKKV[human IgG1 Fc with changes not written out]
notes: Heterodimer of two single-chain Fab-Fc polypeptides, monovalent for each target
